# Test results as given in PubChem BioAssay AID602310 (National Center for Advancing Translational Sciences (NCATS), 2012).
# The whole screen tested about 410,000 compounds, of which about 310 (0.076%) were called active. Another 2% or so got no clear call; they are omitted. Calls follow the shape of the dose curve; as a rule, active = well fitted curve in the direction sought with a large enough effect; inconclusive = small, poorly fitted or top-dose-only effect; inactive = flat fitted curve, though single readings scatter. The list shows a part of the results, in another mix than the full data. Where a structure was tested more than once in an assay, its records may differ in their call.
# Target: DNA dC->dU-editing enzyme APOBEC-3G (Homo sapiens) (UniProt Q9HC16)
# Sequence of UniProt Q9HC16 (Q9HC16 whole entry, looked up): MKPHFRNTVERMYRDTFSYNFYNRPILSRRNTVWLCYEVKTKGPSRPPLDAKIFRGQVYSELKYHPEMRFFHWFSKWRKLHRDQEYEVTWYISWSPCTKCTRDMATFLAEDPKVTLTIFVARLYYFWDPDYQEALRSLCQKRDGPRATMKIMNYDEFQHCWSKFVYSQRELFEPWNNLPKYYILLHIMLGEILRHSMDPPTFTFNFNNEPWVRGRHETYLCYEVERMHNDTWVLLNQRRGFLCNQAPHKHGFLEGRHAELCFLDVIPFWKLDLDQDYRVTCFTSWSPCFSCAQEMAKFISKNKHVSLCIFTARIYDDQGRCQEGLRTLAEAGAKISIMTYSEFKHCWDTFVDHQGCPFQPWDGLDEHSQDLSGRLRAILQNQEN
# Experiment: qHTS for Inhibitors of Vif-A3G Interactions: qHTS; also: nearly all actives have a fitted effect of over 60% in size;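 as to activity, negative = active: hits raise eYFP signal because A3G escapes Vif-driven loss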
# Details: HeLa A3G-eYFP + Vif (tagged APOBEC3G with the HIV-1 protein that degrades it), YFP fluorescence, overnight; series mostly up to 46.1 µM; activity, negative = active: at the top concentration
# Procedure, shortened: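 HeLa cells stably expressing Vif and C-terminally eYFP-tagged A3G, seeded overnight at 37 deg C, then exposed to compound by pintool overnight at 37 deg C. Rise in yellow fluorescence (Ex 488/Em 500-530, Acumen) marks blocked Vif-driven A3G degradation.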
# % is scaled to controls: 0 for no effect and ±100 for the full control effect; potency is read from the fitted curve at half-maximal effect.
Structure (SMILES),"activity, negative = active",Potency
O=C(C[C@H]1C/C=C\CC[C@@H](Cc2ccc(F)cc2)C(=O)O[C@H](c2ccccc2)CNC1=O)N[C@H](CO)Cc1ccccc1,inactive: -13%,
Cn1c(=O)oc2cc(S(=O)(=O)Nc3ccccc3O)ccc21,inactive: -31.5%,
CN(C)c1ccc(/C=C/c2ccnc3ccccc23)cc1O,,active: 11.2 µM
COc1ccc(/C=C2/CCc3ccccc3C2=O)cc1CN1CCOCC1,inactive: -3.26%,
N#C/C(=C\c1ccc(N2CCOCC2)o1)c1nc2ccccc2[nH]1,inactive: 1.55%,
Cc1ccccc1NC(=O)Cn1nnc(C(=O)NCc2ccco2)c1N,inactive: -27.7%,
O=C(C[C@H]1C/C=C\CC[C@H](Cc2ccc(F)cc2)C(=O)O[C@H](c2ccccc2)CNC1=O)N[C@H](CO)Cc1ccccc1,inactive: -24.9%,
O=C(C[C@@H]1C/C=C/CC[C@@H](Cc2ccc(F)cc2)C(=O)OC[C@H](Cc2ccccc2)NC1=O)N[C@H](CO)Cc1ccccc1,inactive: -23.4%,
CC(=O)Nc1cc(NC(C)=O)cc(-c2nc3ccccc3[nH]2)c1,inactive: 0.137%,
CCOC(=O)c1c(CN(CC)CC)n(-c2ccccc2)c2ccc(O)cc12,,active: 12.6 µM
O=C(O)CCCNc1cc(N2CCN(C(=O)c3ccco3)CC2)c2noc3c2c1C(=O)c1ccccc1-3,,active: 22.4 µM
COC(C[C@H]1O[C@@H]1C(=O)[C@H](C)OCc1ccccc1)OC,inactive: -14.3%,
CCCCCCc1cc2cc(-c3nnc(-c4ccccc4OC)o3)c(=O)oc2cc1O,,active: 12.6 µM
CC[C@H](C)C(=O)O[C@H]1CCC=C2C=C[C@H](C)[C@H](CC[C@@H]3C[C@@H](O)CC(=O)O3)[C@H]21,inactive: -24.6%,
C=C1[C@@H](O)[C@H](CC(C)C)N(Cc2ccccc2Br)S1(=O)=O,inactive: -23.3%,
CC(C)C[C@H]1CN([C@@H](CC(C)C)CN2CCCC2CN2C(=S)NC[C@@H]2Cc2ccc(O)cc2)C(=S)N1CC1CCCCC1 (stereo partly drawn),inactive: 1.25%,
CCCCCCCCN1[C@@H](CC(=O)O)c2cc(C(F)(F)F)ccc2S1(=O)=O,inactive: 3.29%,
C=C1CCC2[C@](C)(CO)[C@H](O)CC[C@@]2(C)[C@@H]1C/C=C1\C(=O)OC[C@H]1O (stereo partly drawn),inactive: -13%,
COc1cccc(NC(=O)CSc2nc3ccccc3nc2N2CCOCC2)c1,inactive: -12%,
COc1ccc(/C=C2/CCc3ccccc3C2=O)cc1OC,inactive: -16.7%,
COCCNC(=O)c1cc2c(c(-c3cccc(-c4cc5ccccc5o4)c3)n1)[C@@H](CCO)N(S(=O)C(C)(C)C)C2 (stereo partly drawn),inactive: -19.6%,
N#C/C(=C\c1ccc(-c2ccc(C(=O)O)cc2)o1)c1nc2ccccc2[nH]1,inactive: -15.8%,
CCC/C=N/NC(=O)c1[nH]c2c([N+](=O)[O-])cccc2c1C,,active: 7.08 µM
CSCC[C@H](NC(=O)[C@H](Cc1ccccc1)n1c(=O)[nH]c2ccccc2c1=O)C(=O)N1CCC[C@H]1C(=O)O,inactive: 4.09%,
CCc1ccccc1NC(=O)Cn1nnc(C(=O)NCc2cccs2)c1N,inactive: -18%,

Structure (SMILES),"activity, negative = active",Potency
O[C@H]1CN(Cc2cccs2)[C@@H](c2ccc(Cl)cc2)C[C@@H]1n1cc(C2CC2)nn1,inactive: -0.649%,
N#C/C(=C/c1ccc(-c2ccccc2[N+](=O)[O-])o1)C(N)=O,inactive: -10.9%,
Cc1ccc(C)c(NC(=O)Cn2nnc(C(=O)NCc3ccco3)c2N)c1,inactive: -28.8%,
CN1CCN(CCCN2c3ccccc3Sc3ccc(C(F)(F)F)cc32)CC1,,inactive
COc1cc(-c2noc(C)c2C#Cc2ccccn2)cc(OC)c1OC,inactive: -40.5%,
N#Cc1cccc(NC(=O)CSc2ccc3c4c(cccc24)C(=O)c2ccccc2-3)c1,,active: 2.82 µM
O=C(/C=C\c1ccccc1)Oc1cccc2cccnc12,inactive: -3.62%,
CC(C)N1CCc2c(sc(NC(=O)c3ccc(S(=O)(=O)N4CCc5ccccc54)cc3)c2C(N)=O)C1,,active: 20 µM
C=CC[C@@H](CC(=O)N[C@@H](CO)Cc1ccccc1)C(=O)NC[C@H](OC(=O)[C@@H](CC=C)Cc1ccc(F)cc1)c1ccccc1,inactive: 0.942%,
COC(=O)N1C(=O)[C@](c2ccccc2)(C2CCCC2)N1C(=O)OC,inactive: -10%,
COc1ccc(-c2nc3c4ccccc4ccn3c2Cc2ccsc2)cc1OC,,active: 8.91 µM
COc1ccc(NS(=O)(=O)c2cc([N+](=O)[O-])ccc2N/N=C\c2c(C)[nH]c3ccccc23)cc1,inactive: -15.4%,
C[C@H](NC(=O)c1nc[nH]c1C(=O)N1CCN(C(=O)OC(C)(C)C)CC1)c1ccccc1,inactive: -8.97%,
CCN1C(=O)[C@H]2[C@@H](c3ccc(SC4CCCCC4)cc3)N3CCCC[C@@]3(C(=O)OC)[C@H]2C1=O,inactive: 3.42%,
COc1cc(-c2noc(C)c2-c2ccc3[nH]ccc3c2)cc(OC)c1OC,,active: 14.1 µM
COc1ccc2c(c1OC)C(=O)OC2C1c2c(cc3c(c2OC)OCO3)CCN1C (stereo not drawn),,inactive
CN(c1ccccc1)S(=O)(=O)c1ccc(NC(=O)c2nc(S(C)(=O)=O)ncc2Cl)cc1,inactive: -10.2%,
O=C(O)c1ccc(N/N=C/C2=C(N3CCOCC3)C(=C\c3ccccc3)/CC2)cc1,inactive: 5.77%,
CCN1CCN(Cc2ccc(NC(=O)c3ccc(C)c(NC(=O)C(=O)c4c[nH]c5ccccc45)c3)cc2C(F)(F)F)CC1,inactive: -28.9%,
CC(=O)c1cccc(-c2ccnc3c2CC(C(=O)NCc2ccco2)O3)c1 (stereo not drawn),,active: 0.891 µM
Cc1ccc([C@H]2C[C@@H](n3cc(C4CC4)nn3)[C@H](O)CN2CC2CCCCC2)cc1,inactive: -22.8%,
Cc1cccc(N2CCN(C(=O)C3CCN(c4ncnc5c4nc4n5CCCCC4)CC3)CC2C)c1 (stereo not drawn),inactive: -24.6%,
C[n+]1cc2c3c(ccc2c2ccc4cc5c(cc4c21)OCO5)OCO3,inactive: -5.24%,
CC1=CC(C)(C)NC(=S)N1c1ccc2ccccc2c1,inactive: 2.76%,
Cc1ccc(C(=O)N/C(=C/c2ccc(-c3cccc([N+](=O)[O-])c3)o2)C(=O)NC(C)(C)C)cc1,inactive: -0.0156%,

Structure (SMILES),"activity, negative = active",Potency
COC(=O)c1sc2cc([N+](=O)[O-])cc(SCC(C)C)c2c1N,,active: 10 µM
CCN1/C(=C\c2ccc3cc(C)ccc3[n+]2CC)Sc2cc(C)c(C)cc21,inactive: 14.8%,
CN(C)c1ccc(/C=C/c2nc3ccccc3c(=O)n2CCO)cc1,,active: 11.2 µM
CCOc1ccccc1CNC(=O)C1CCCN(c2nnc(C)c3c(C)n(-c4ccccc4)nc23)C1 (stereo not drawn),inactive: -9.34%,
Cc1ccc(NC(=O)c2cc(S(=O)(=O)NCCC3=CCCCC3)ccc2F)cc1F,inactive: -13%,
COc1cc2c(OC(C)=O)c3c(c(-c4ccc5c(c4)OCO5)c2cc1OC)C(=O)OC3,inactive: -23%,
Cc1ccn2c(Nc3ccccc3C)c(-c3ccccn3)nc2c1,inactive: 2.84%,
Cc1nnc(NC(=O)c2nc(S(=O)(=O)Cc3ccccc3)ncc2Cl)s1,inactive: -20.4%,
CCN1C/C(=C/c2ccc(N3CCOCC3)cc2)C(=O)/C(=C/c2ccc(N3CCOCC3)cc2)C1,,active: 10 µM
CCOc1ccccc1NC(=O)Cn1nnc(C(=O)NCc2cccs2)c1N,inactive: -35%,
CCc1nnc(NC(=O)c2nc(S(=O)(=O)Cc3cccc(C)c3)ncc2Cl)s1,inactive: -14.3%,
CCc1cccc2cc3c(N)c(C(=O)Nc4ccc(S(=O)(=O)N5CCCC5)cc4)sc3nc12,,active: 3.55 µM
N#CC1=C(N)Oc2c(sc3ccccc23)C1c1ccco1 (stereo not drawn),,active: 11.2 µM
COc1cc(OC)c(OC)cc1/C=C/c1ccc2ccccc2n1,inactive: -16%,
COc1ccc(-n2c(O)c(/C=N/NS(=O)(=O)c3ccc(C)c([N+](=O)[O-])c3)c3ccccc3c2=O)cc1OC,,active: 3.55 µM
O=C(C[n+]1cc(Br)cc2ccccc21)c1ccc(F)cc1,inactive: -25.5%,
CCCCCCCCCCCCCCCC[n+]1cccc(C(=O)N(CC)CC)c1,inactive: 2.77%,
O=C(Nc1ccc([N+](=O)[O-])cc1)C(Cc1ccccc1)N1C(=O)c2cccc3cccc(c23)C1=O (stereo not drawn),,active: 10 µM
Cn1c(N)c(-c2ccccc2)c2ccc([N+](=O)[O-])cc2c1=O,,active: 8.91 µM
N#CC1=C(N)C(C#N)(C#N)[C@H](c2ccncc2)[C@H]2CN(C(=O)OCc3ccccc3)CC=C12,inactive: -12.4%,
COc1ccc(-n2nc3c(N4CCC(C(=O)NCc5ccccc5C)CC4)nnc(C)c3c2C)cc1,inactive: -27.2%,
CC1=NN(c2ccccc2)C(=O)/C1=C\C=C\c1ccccc1,inactive: -24.6%,
CCCCCc1ccc(-c2cn(Cc3ccc(C(=O)c4ccccc4)cc3)nn2)cc1,inactive: -25.8%,
